Reference: PubChem BioAssay (NCI)
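Cells were grown in 96-well plates and exposed to each compound for 48 hours at five concentrations; endpoints were interpolated linearly between bracketing concentrations, or set to the highest concentration if not reached. GI50 = concentration required for 50% inhibition of growth. The concentration for full growth arrest is given as TGI.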

Tested on: NCI-H322M lung
Experiment: NCI tumour cell line growth inhibition, 48 h

| Structure (SMILES) | TGI | GI50 |
| --- | --- | --- |
| O=C(/C=C/c1ccccc1)Oc1cccc2cccnc12 | > 91.2 µM | – |
| C/C=C/C(C#N)O[Si](C)(C)C (centres undefined) | > 100 µM | – |
| Cn1nc2ccc([N+](=O)[O-])c(Cn3nnc4ccccc43)c2n1 | > 100 µM | – |
| CCSC1=NC2C(N(CC)C(=O)N2CC)N1/N=C/C=C/c1ccccc1[N+](=O)[O-] (centres undefined) | > 100 µM | 0.421 µM |
| [N-]=[N+]=Nc1c(Cc2ccccc2)c(Cl)nc2ccccc12 | 93.8 µM | – |
| CC1CC[C@@]2(OC1)OC1C[C@H]3[C@@H]4CC=C5CC(OC6OC(CO)C(OC7OC(CO)C(O)C(OC8OCC(O)C(O)C8O)C7OC7OC(CO)C(OC8OC(C)C(OC9OC(C)C(O)C(O)C9O)C(O)C8O)C(O)C7O)C(O)C6O)CCC5(C)[C@H]4CCC3(C)C1[C@@H]2C (some centres undefined) | 11.5 µM | – |
| Cc1cc(C)nc(NS(=O)(=O)c2ccc(NC(=O)c3c4ccccc4nc4ccccc34)cc2)n1 | > 100 µM | – |
| CNC(C)(C)Cc1ccc(Cl)cc1 | > 100 µM | – |
| CCC/C(Cl)=N\OC(=O)Nc1ccc(F)cc1 | > 100 µM | – |
| C=C1CCC2C3(C)COC(C)(C)OC3CCC2(C)C1C/C=C1/C(=O)OCC1OC(C)=O (centres undefined) | 29.2 µM | 13.6 µM |
| Cn1c(=O)nc2n(-c3ccc(O)cc3)c3ccccc3nc-2c1=O | > 100 µM | – |
| O=C1C[C@H]2CCCN2[C@@H](c2ccccc2)C1 | > 100 µM | – |
| CCCCN(CCCC)Cc1cc(Nc2ccnc3cc(Cl)ccc23)ccc1O | > 100 µM | 5.12 µM |
| C[C@@H]1OC(=O)C[C@H]2CC(=O)N(CCC3CN(C(=O)OCc4ccccc4)c4ccccc43)C[C@@H]21 (some centres undefined) | > 100 µM | – |
| O=S1(=O)c2ccccc2Oc2ccc(C(/C=N/O)=N/O)cc21 | 52.2 µM | – |
| COC(=O)Cc1cc(O)c2c(c1O)C(=O)c1ccccc1C2=O | > 100 µM | – |
| CC12CCC(CC(=O)/C1=C(/Br)I)C2(C)C (centres undefined) | 33.8 µM | – |
| O=[N+]([O-])c1ccccc1OCCOc1ccccc1[N+](=O)[O-] | > 100 µM | – |
| CCc1n[nH]c(=O)n1CCCCCCCCCCCCn1c(CC)n[nH]c1=O | > 100 µM | – |
| O=C(O)c1nc(NCc2nc3cc(Cl)ccc3o2)n[nH]1 | > 100 µM | > 100 µM |
| Oc1cccc(Nc2nc3ccccc3c3occc23)c1 | 1.34 µM | – |
| CCC1(O)C(=O)OCc2c1cc1n(c2=O)Cc2cc3ccccc3nc2-1 (centres undefined) | 0.943 µM | – |
| Cc1ccc(Nc2nc3[nH]ccc3c(=O)[nH]2)cc1 | > 100 µM | – |
| N=C1C(=N)c2ccccc2-c2ccccc21.[Cl-].[Ru+2].c1ccc(-c2ccccn2)nc1.c1ccc(-c2ccccn2)nc1 | > 100 µM | – |
| CCOC(=O)c1ccc(-n2[nH]nc(C(N)=O)c2=O)cc1 | > 100 µM | – |

| Structure (SMILES) | TGI | GI50 |
| --- | --- | --- |
| O=C1OCC2=C1C(c1cccc(F)c1)c1cc3c(cc1N2CCO)OCO3 (centres undefined) | > 50 µM | 4.01 µM |
| COc1ccc(N2CC(=O)N(C(=O)COc3ccc(OCC(=O)N4C(=O)CN(c5ccc(OC)cc5)C4=S)cc3)C2=S)cc1 | 78.4 µM | – |
| c1ccc(-c2nc(-c3ccccn3)nc(-c3ccccn3)n2)nc1 | > 100 µM | 27 µM |
| O=C(c1ccc2ccccc2c1)c1c(C(F)(F)F)n([O-])c2ccc(C(F)(F)F)cc2[n+]1=O | 3.23 µM | 1.79 µM |
| C=CCC1(C#N)C(=S)NC2=C(C(=O)CC(C)(C)C2)C1c1ccccc1 (centres undefined) | 64.4 µM | – |
| CCSCCCSCCSCC | > 100 µM | – |
| Cn1c(=O)c2c(nc3n(CC(O)CCl)c(=O)ccn23)n(C)c1=O (centres undefined) | > 100 µM | – |
| c1ccc(-c2csc3c4ccccc4c4ccccc4[n+]23)cc1 | 35.8 µM | – |
| CN(C)CCNC(=O)Cn1ccc(=O)c2cc([N+](=O)[O-])ccc21 | > 100 µM | – |
| N=C1C(O)C2(I)c3ccccc3N3C(=N)C(O)C4c5ccccc5N1C4C32 (centres undefined) | > 100 µM | – |
| S=C1c2ccc(Cl)cc2-n2cnnc2C2CSCN12 (centres undefined) | > 100 µM | – |
| c1ncn(C23C4C5C6C4C2C6C53)n1 (centres undefined) | > 100 µM | – |
| N#CCCN(CCC#N)c1ccc(/C=C2\N=C(c3ccccc3)N(c3ccc(F)cc3)C2=O)cc1 | > 100 µM | – |
| N#Cc1c(-c2ccc(Cl)cc2)c2c(nn3c4ccc5ccccc5c4nnc23)[nH]c1=O | 37.4 µM | – |
| C1CSCCCSCCCSCCCSCCCSCCCSCCCSCCCSC1 | > 100 µM | – |
| COc1ccc(-c2noc(C(=O)O)c2-c2cc(OC)c(OC)c(OC)c2)cc1 | > 100 µM | 5.36 µM |
| CCCN1C(=O)NC(=O)C(CC)(N2C(=O)c3c(F)c(F)c(F)c(F)c3C2=O)C1=O (centres undefined) | 13.9 µM | 3.67 µM |
| N#CN1C2CCC1CC(=O)C2 | > 100 µM | – |
| Cc1ccc2cnc(N)c(C#Cc3cc(C(=O)Nc4ccc(CN5CCN(C)CC5)c(C(F)(F)F)c4)cnc3C)c2c1 | 2.78 µM | 0.926 µM |
| O=C(COc1ccccc1Cl)N1N=C(c2ccc(Cl)cc2)CC1(O)c1ccccc1 (centres undefined) | > 100 µM | – |
| COc1cc(C)ccc1C(=O)c1ccc(C)cc1OC | > 100 µM | 6.93 µM |
| CC(=O)Nc1ccc(-c2cc(C(=O)O)c3cc4ccccc4cc3n2)cc1 | > 100 µM | – |
| c1cc[c]([Sn][c]2ccccc2)cc1 | 48.2 µM | 21.3 µM |
| O=C1[C@H](O)[C@@H]2C(O)O[C@H]3[C@@H]2N1C[C@H]3[Si](c1ccccc1)(c1ccccc1)c1ccccc1 (some centres undefined) | > 100 µM | – |
| O=C1CC(CC(=O)C2CCCCC2=O)C(=O)N1 (centres undefined) | > 100 µM | – |

| Structure (SMILES) | TGI | GI50 |
| --- | --- | --- |
| CSc1ncc2c(n1)C(C#N)C1Sc3ccccc3N1C2=O (centres undefined) | > 100 µM | – |
| CC[O-].CC[O-].O=C([CH-]C(=O)c1ccccc1)CCCCCCCCC(=O)[CH-]C(=O)c1ccccc1.[Ti+4] | > 100 µM | > 100 µM |
| Cc1c2cnccc2c(C)c2c1c1cc(C#N)ccc1n2C | 1.1 µM | 0.138 µM |
| Cn1ccnc1CCc1c(Cl)cccc1Cl | > 100 µM | – |
| C=CCc1c(Cl)nc(Cl)nc1Cl | 1.42 µM | – |
| C[N+](C)(C)CCC(=O)CC[N+](C)(C)C | > 100 µM | – |
| CC(C)(C)c1ccc(OCCOc2ccc(C(C)(C)C)cc2N)c(N)c1 | > 100 µM | – |
| COc1cc(C2c3c(ccc4ccccc34)C(=O)C3CCC(=O)N32)cc(OC)c1OC (centres undefined) | > 50 µM | – |
| IC[P+]1(c2ccccc2)CCCC1 | 67.7 µM | – |
| COc1cccc(-c2nc3cc(NC(=O)c4ccc(Cl)c(C#N)c4)ccc3o2)c1 | 5.1 µM | 2.19 µM |
| Nc1ncnc2c1ncn2C1OC(CSCC(F)(F)F)C(O)C1O (centres undefined) | > 100 µM | – |
| COc1ccc2nccc(C3=CCC4CCN(C(=O)c5ccccc5)C3C4)c2c1 (centres undefined) | > 100 µM | – |
| COc1cc(/C=C/C(=O)/C=C/c2cc(OC)c3c(c2)OCO3)cc2c1OCO2 | > 100 µM | > 100 µM |
| O=c1cc(-c2cccs2)[nH]c2cc3c(cc12)OCO3 | > 100 µM | – |
| N#CC(N)=Nc1ccccc1 | > 100 µM | – |
| CC(C)=CCN1c2ccccc2NC(=O)CC1C (centres undefined) | > 100 µM | – |
| CC1=C2C(=C[C@@](C)(CO)[C@@H]2OC(=O)N(C)CCN(C)C(=O)OC(C)(C)C)C(=O)[C@](C)(O)C12CC2 | 30.6 µM | 7.78 µM |
| C/C(CC(O)(C(F)(F)F)C(F)(F)F)=N\NC(N)=O | > 10 µM | – |
| CCOC(=O)NC(=O)c1cn(CCN2CCN(C(=O)NCCCCCCNC(=O)N3CCN(CCn4cc(C(=O)NC(=O)OCC)c(=O)[nH]c4=O)CC3)CC2)c(=O)[nH]c1=O | > 100 µM | – |
| CC(=O)c1c(C(F)(F)F)n([O-])c2ccccc2[n+]1=O | 6.8 µM | 1.95 µM |
| COc1ccc2c(c1)C(=O)/C(=C/c1cccc(OCC(=O)c3ccccc3)c1)CC2 | > 100 µM | > 100 µM |
| O=S(=O)(Nc1ccc(Br)cc1)c1ccc(-c2cnc(C3CC3)o2)cc1 | 17.9 µM | 5.21 µM |
| Fc1ccc(C(OCCN2CCN(CCCc3ccccc3)CC2)c2ccc(F)cc2)cc1 | 20.8 µM | – |
| Cn1c(=O)c2[nH]c(N/N=N/c3nncs3)nc2n(C)c1=O | > 100 µM | – |
